# In the supplement of paper PMC4166925:
# ± gives the standard deviation of the averaged measurements. In all, about 33,000 sequences were measured (“E-score (dimensionless, -0.5 to 0.5)”: median about -0.049, highest 2% from about 0.37 on). The list shows a part of the results.
# System: T1, PmTbr T-box DNA-binding domain (GST fusion)
# T1 sequence: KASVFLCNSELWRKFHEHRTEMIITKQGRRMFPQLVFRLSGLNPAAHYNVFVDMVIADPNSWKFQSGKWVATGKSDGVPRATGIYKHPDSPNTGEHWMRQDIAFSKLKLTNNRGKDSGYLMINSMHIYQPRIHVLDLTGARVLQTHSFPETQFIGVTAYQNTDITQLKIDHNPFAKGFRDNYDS
# Assay: PBM E-score of 8-mer (E-score (dimensionless, -0.5 to 0.5)); Tbr is Tbrain of the sea star Patiria miniata (Pm) or the sea urchin Strongylocentrotus purpuratus (Sp); higher = stronger binding preference; most listed sequences are background and not binding sites
# Conditions: the construct has about 5 more residues each side
# Outline: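 Primer extension turned Universal Agilent oligonucleotide arrays double-stranded. They were incubated with 200 nM protein in PBS (pH 7.5); the protein was a GST-fused Tbr T-box DNA-binding domain expressed in BL21 E. coli at 20 °C and purified on glutathione. Every ungapped 8-mer was scored from the scanned, quantified probe intensities, and the Universal PBM Analysis Suite gave each an enrichment E-score averaged over duplicate arrays.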
row,Sequence,PBM E-score of 8-mer
1,AAGAATCG,-0.0615 ± 0.066
2,GACAACGC,0.2165 ± 0.00078
3,AGCGTCAG,-0.0271 ± 0.047
4,ACTTCGTA,0.0369 ± 0.042
5,ACTTACCC,0.0624 ± 0.018
6,TAAGCCGA,-0.153 ± 0.006
7,AAGTGAGC,0.1 ± 0.014
8,CCCACACA,0.17 ± 0.0076
9,ACGACCTG,0.00253 ± 0.052
10,GGGGATGA,-0.132 ± 0.022
11,GTAAGCTA,-0.266 ± 0.012
12,CAAACAAC,0.0609 ± 0.00083
13,ATAAACCC,-0.175 ± 0.015
14,ACTTCTGA,0.156 ± 0.038
15,ACTACCTC,-0.248 ± 0.022
16,CACAAAAA,0.196 ± 0.061
17,ATATGAAG,0.0923 ± 0.063
18,CACTAGCC,0.0461 ± 0.04
19,ATGTGCAA,0.226 ± 0.022
20,CATACCAG,0.06 ± 0.022
21,GCTGGTTA,-0.0863 ± 0.064
22,AAAGTTAG,0.165 ± 0.062
23,ATGTCGCC,0.0862 ± 0.038
24,AACAGCTC,0.224 ± 0.0067
25,GCGCCCCA,0.0233 ± 0.013

row,Sequence,PBM E-score of 8-mer
1,TAAGTAAA,0.0555 ± 0.012
2,AGGAAATG,-0.0436 ± 0.025
3,ACGATTAT,-0.0344 ± 0.11
4,AGCAGGTG,0.414 ± 0.026
5,AACCGCCT,-0.193 ± 0.051
6,CAGTTGCG,0.255 ± 0.011
7,AAGCTAAA,-0.155 ± 0.042
8,ACAGTTTG,0.106 ± 0.011
9,ATTTTGAG,-0.191 ± 0.09
10,CGGTCACC,0.0508 ± 0.043
11,AGCGGGCA,0.0308 ± 0.016
12,CAAGCCAG,-0.2392 ± 0.0017
13,AGCCTATC,-0.2 ± 0.016
14,CAAATGGA,-0.0686 ± 0.065
15,ACTGTACG,-0.0583 ± 0.012
16,ATAACGTG,0.2268 ± 0.0011
17,ACACTGGT,0.0876 ± 0.027
18,AATCCACC,-0.216 ± 0.013
19,CCGTACAA,-0.184 ± 0.043
20,CGAGCCAG,-0.153 ± 0.009
21,GCTCCATA,-0.361 ± 0.024
22,CGTGCTCC,-0.172 ± 0.017
23,ACCCCGGG,0.0177 ± 0.028
24,ATTATCGG,0.0166 ± 0.099
25,GGGAGTCA,-0.0598 ± 0.063

row,Sequence,PBM E-score of 8-mer
1,GACAGAAC,-0.14 ± 0.039
2,ACCCCATG,-0.00548 ± 0.12
3,CTGCAAGA,-0.256 ± 0.017
4,ATAACCAT,-0.0901 ± 0.022
5,CAAAGAAA,-0.244 ± 0.039
6,TTCCGGAA,-0.287 ± 0.0082
7,GACTCTCC,-0.183 ± 0.018
8,AAATCCGT,-0.0563 ± 0.063
9,GACTGACA,0.142 ± 0.069
10,AGAGTCCA,-0.0367 ± 0.066
11,ATTCGGTG,0.139 ± 0.074
12,AAGCTACT,-0.00821 ± 0.04
13,ACCTTGCG,0.327 ± 0.013
14,CTACCGGC,-0.0673 ± 0.0053
15,GTAAGACA,-0.05851 ± 0.00017
16,TATTTAAA,-0.166 ± 0.056
17,AGTTCCAA,-0.116 ± 0.037
18,AATTGCAC,0.186 ± 0.0071
19,CGTACTGC,-0.107 ± 0.057
20,GGGACCGA,-0.172 ± 0.032
21,GGTATTAC,-0.137 ± 0.093
22,AAACAAGG,-0.00432 ± 0.0069
23,AATACCCA,-0.157 ± 0.13
24,ATCCATTC,-0.2794 ± 0.0019
25,AAAGCGAA,-0.0477 ± 0.069

row,Sequence,PBM E-score of 8-mer
1,CATTGGGG,-0.0156 ± 0.035
2,CAGGGTTC,0.0231 ± 0.012
3,AGTCTAGG,-0.158 ± 0.038
4,AGGGGCAA,-0.0624 ± 0.058
5,AAGTGATG,0.28 ± 0.0076
6,AGTGTTGA,0.395 ± 0.022
7,GCACCGAA,-0.0219 ± 0.025
8,AATTCGAG,-0.0627 ± 0.075
9,ATCCTTGG,-0.274 ± 0.093
10,AGAAAAAA,0.0449 ± 0.1
11,CCATTTAA,-0.0227 ± 0.027
12,CACTCAGC,0.109 ± 0.053
13,AACTCGTC,0.133 ± 0.0068
14,ACTTCTCG,0.226 ± 0.052
15,AAGACTGT,-0.122 ± 0.058
16,GGATTCGA,-0.122 ± 0.025
17,AAGTTGAG,0.0749 ± 0.065
18,CAGGTCGA,0.13 ± 0.0056
19,ACGAAACC,-0.107 ± 0.018
20,CGCGATGC,0.0992 ± 0.017
21,CATATCGG,-0.111 ± 0.0044
22,AGTTCCCA,-0.094 ± 0.026
23,AGGGTCCG,-0.126 ± 0.01
24,ACAGGTGA,0.406 ± 0.0049
25,CTTCTCCA,-0.194 ± 0.0031

row,Sequence,PBM E-score of 8-mer
1,CAAATATA,-0.177 ± 0.054
2,CAGGACGC,0.0118 ± 0.05
3,TGTGTCAA,0.372 ± 0.014
4,CAGGGGGC,-0.132 ± 0.031
5,AGCGGTAG,-0.0161 ± 0.021
6,GCCCGCGA,0.113 ± 0.04
7,AAAATCGG,-0.165 ± 0.057
8,ACCTGTAT,0.168 ± 0.011
9,GTCCTGGA,-0.342 ± 0.065
10,CCGCGTTC,-0.0663 ± 0.0095
11,GACGATGA,-0.0998 ± 0.004
12,GACGTTTA,-0.111 ± 0.014
13,CTGTCTAC,0.0533 ± 0.045
14,GAAAAATC,0.17 ± 0.077
15,ACTGGCCG,-0.033 ± 0.03
16,AGGATGTA,-0.1063 ± 0.00074
17,CGTAGAAC,-0.133 ± 0.028
18,ATAGAAGC,-0.294 ± 0.13
19,ACAATCTC,0.202 ± 0.036
20,AACTCACC,0.0059 ± 0.011
21,CAGTACCG,-0.1169 ± 0.00046
22,TAAGCAAA,-0.122 ± 0.044
23,GTTTGAGA,-0.0765 ± 0.072
24,GCAACGGA,-0.0777 ± 0.049
25,GTATGTCA,0.155 ± 0.034

row,Sequence,PBM E-score of 8-mer
1,GAGCAGCC,-0.148 ± 0.048
2,AGCCGTAA,-0.13 ± 0.0034
3,CCTGCTAA,0.338 ± 0.033
4,GCGCACCA,-0.0144 ± 0.01
5,TCTAAACA,0.0667 ± 0.05
6,ACAGCCAG,-0.0384 ± 0.055
7,ATTCATCA,0.0685 ± 0.019
8,ACTCTTCC,-0.043 ± 0.011
9,AACACTGG,-0.059 ± 0.088
10,CGATGGAA,-0.0612 ± 0.022
11,CGGAAGGC,-0.00664 ± 0.04
12,ACGCGGCC,-0.0745 ± 0.03
13,GAAGACCA,-0.0463 ± 0.011
14,ATAAGAGC,-0.183 ± 0.025
15,GAGTAGAA,-0.208 ± 0.013
16,AGGTAGTA,-0.102 ± 0.005
17,ACGCAGCG,-0.0847 ± 0.052
18,CAGCCCGA,-0.215 ± 0.055
19,ATGCGACG,0.0226 ± 0.025
20,AGTCATTC,0.0179 ± 0.06
21,AGGAACAC,0.141 ± 0.0084
22,CTTACGAA,-0.0964 ± 0.046
23,GAGGGCAA,0.0275 ± 0.024
24,TACTGGCA,0.111 ± 0.034
25,AACCTACA,0.134 ± 0.012

row,Sequence,PBM E-score of 8-mer
1,CACCTAGA,0.324 ± 0.028
2,TACTCGGA,-0.187 ± 0.067
3,AAGAGGAT,-0.0795 ± 0.076
4,ACAAGATC,0.00917 ± 0.059
5,CTATGCAG,0.0415 ± 0.0051
6,AAAATTGT,-0.0113 ± 0.062
7,GACGTGCC,0.213 ± 0.018
8,TCCCTGCA,-0.162 ± 0.011
9,ATTAACGG,-0.167 ± 0.018
10,GTTGAGAA,0.217 ± 0.0097
11,AGGGGGTC,-0.25 ± 0.031
12,ATGGCCTA,-0.203 ± 0.011
13,GACCAATC,0.0215 ± 0.014
14,GTACTGCA,-0.118 ± 0.03
15,ACTGCTCT,-0.152 ± 0.0054
16,GTGTCAGA,0.3931 ± 0.00061
17,CCCGGGAG,-0.212 ± 0.0027
18,AATAGTGC,0.128 ± 0.038
19,CTACATCC,-0.0987 ± 0.0034
20,CATAAGTC,-0.19 ± 0.031
21,CAGTACAC,-0.0273 ± 0.034
22,CCCCAACC,-0.154 ± 0.094
23,GGACGTCC,-0.186 ± 0.014
24,GAAATGCC,-0.0296 ± 0.07
25,AGAAAGAC,-0.173 ± 0.0084

row,Sequence,PBM E-score of 8-mer
1,CAGAACAG,-0.265 ± 0.071
2,GATTTCGA,0.0762 ± 0.0093
3,AGCGGTGA,0.053 ± 0.09
4,ACTAAGAG,-0.175 ± 0.022
5,AGTAATAA,-0.221 ± 0.058
6,AGGCCGTA,-0.274 ± 0.029
7,CGCATGCA,-0.101 ± 0.0039
8,CAAGTAGG,0.0921 ± 0.02
9,GACCTCTA,-0.259 ± 0.07
10,AAACACGC,0.125 ± 0.0076
11,ACGTCGCG,0.181 ± 0.03
12,GTCATAAA,-0.0049 ± 0.031
13,GACGATCA,-0.244 ± 0.094
14,AACATCGC,0.0637 ± 0.016
15,GCTTTGGA,-0.0985 ± 0.026
16,CAACTCCA,0.0575 ± 0.041
17,AATTGGAT,-0.0858 ± 0.095
18,ATTAAAAT,-0.0591 ± 0.16
19,CTTATTCA,-0.00801 ± 0.053
20,TAATAAGA,-0.142 ± 0.073
21,CGGGACTC,-0.18 ± 0.045
22,ATCCCTGG,-0.0457 ± 0.025
23,CGTCGAGA,-0.0587 ± 0.027
24,AATAACTA,0.0446 ± 0.031
25,CGGAGTAA,-0.121 ± 0.0036

row,Sequence,PBM E-score of 8-mer
1,GACGTGGC,0.167 ± 0.049
2,AGAAATAT,0.0647 ± 0.097
3,AAAACATT,-0.0945 ± 0.013
4,CCATTAAG,-0.268 ± 0.021
5,GCAATGAC,-0.0287 ± 0.0011
6,TCCCACAA,-0.0709 ± 0.024
7,CGGTAGTC,-0.405 ± 0.034
8,GAAGTCTA,-0.228 ± 0.024
9,ACCAGGCG,0.175 ± 0.0061
10,ATGCAAGA,-0.329 ± 0.1
11,AGGATAAT,-0.1381 ± 0.0012
12,AGCATCGA,-0.142 ± 0.058
13,AACATCTT,-0.12 ± 0.07
14,TGTGCGAA,0.448 ± 0.0066
15,CTGCCCGC,-0.146 ± 0.041
16,GCACGGGA,-0.0981 ± 0.01
17,GACCTTTA,-0.207 ± 0.088
18,GAAGCGTA,-0.145 ± 0.051
19,CGGTTATA,-0.031 ± 0.032
